Results from PubChem BioAssay (NCATS).
Inconclusive results, whose numbers are uncertain, are shown with a selection of clear calls. For part of these data: Potencies of inconclusive entries are doubtful fits and often do not repeat. The source made the active and inactive calls. Unless noted, calls come from the whole dose curve; as a rule, active = well fitted curve in the direction sought with a large enough effect; inconclusive = small, poorly fitted or top-dose-only effect, or another doubt; inactive = no such curve, though single readings can be large; an effect the other way counts as inactive or inconclusive.

Legend:
[1] = P-glycoprotein substrates identified in KB-8-5-11 adenocarcinoma cell line, qHTS therapeutic library screen (AID 1346987); note: potency is the fitted concentration of half-maximal effect; nearly all actives have a fitted effect of over 65% in size
How it was run: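 Compounds are pinned in dose-response onto KB-8-5-11 cells (500 cells/well, colchicine-free medium) and left 72 h at 37 degree C. CellTiter-Glo luminescence then yields AC50 values.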

Furin (Homo sapiens) = Furin (Homo sapiens) (UniProt P09958); experiment: Furin counterscreen qHTS for Zika virus inhibitors (AID 1347149); details: furin enzymatic counterscreen, fluorogenic substrate; activity change, negative = inhibition: at 57.5 µM (top of the series); note: potency is the fitted concentration of half-maximal effect; nearly all actives have a fitted effect of over 70% in size
How it was run: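 Counterscreen measures cleavage of 2 microM BOC-RVRR-AMC, below its ~15 microM Km, by 5 nM full-length human furin at pH 7.0 after a 15-min compound preincubation. Inhibition derives from the 15-min fluorescence increase at 37C.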

[2] = system: Zika virus NS2B-NS3 protease (unlinked complex); experiment: Confirmatory screen GU AMC qHTS for Zika virus inhibitors (AID 1347153); note: potency is the fitted concentration of half-maximal effect; nearly all actives have a fitted effect of over 70% in size
How it was run: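 Unlinked enzyme 25 nM, Tris pH 8.0/0.01% Tween 20; cpd 15 min RT, dark; + AMC substrate 10 µM (Km 18.3 µM); 340/450 nm read at t0 and 15 min; % inhibition → 4-param fit.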

[3] = ZIKV-mCherry secondary qHTS for Zika virus inhibitors (AID 1347158); note: potency is the fitted concentration of half-maximal effect
How it was run: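 Percent infection is the share of Hoechst-identified Vero nuclei with mCherry signal above 450 RFU (3 SD over negative controls). Cells were infected with recombinant ZIKV-mCherry at MOI 1 after compound addition and imaged 48–72 h later.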

[4] = system: Zika virus NS2B-NS3 protease (unlinked complex); experiment: Primary screen GU Rhodamine qHTS for Zika virus inhibitors: Unlinked NS2B-NS3 protease assay (AID 1347159); note: nearly all actives have a fitted effect of over 60% in size; note: potency is the fitted concentration of half-maximal effect; for activity change, negative = inhibition: % is set by controls: 0 for no effect and ±100 for the full control effect
How it was run: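 Unlinked NS2B/NS3, 25 nM; Rhod110 peptide, 1.5 microM; compounds, up to 114 microM. Reaction run 15 min at RT in 10 mM Tris-HCl pH 8.0, 0.01% Tween 20; kinetic fluorescence change fitted with a 4-parameter Hill model.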

[5] = system: Zika virus NS2B-NS3 protease (linked construct); experiment: Primary screen NINDS Rhodamine qHTS for Zika virus inhibitors (AID 1347160); details: activity change, negative = inhibition: at 57.1 µM (top of the series) unless noted; note: potency is the fitted concentration of half-maximal effect; nearly all actives have a fitted effect of over 55% in size
How it was run: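 Single-chain NS2B-NS3 protease, 25 nM, pH 8.0; compounds preincubated 15 min. Activity: Rhodamine110 release from 1.5 microM substrate over 15 min, room temperature, data fitted to 4-parameter Hill.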

[6] = Tertiary RLuc qRT-PCR qHTS assay for Zika virus inhibitors (AID 1347169); note: potency is the fitted concentration of half-maximal effect; nearly all actives have a fitted effect of over 55% in size
How it was run: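 Luminescence read-out: live-cell Renilla luciferase substrate applied to infected Vero cells, signal measured after 1-1.5 hrs. Cells had received compound before ZIKV-RLuc (Cambodian strain, MOI 1-2) infection and were incubated 48-72 hrs at 37 degrees C.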

[7] = molecular target: Cytochrome P450 2D6 (Homo sapiens) (UniProt P10635); experiment: Cytochrome P450 family 2 subfamily D member 6 (CYP2D6) small molecule antagonists: luciferase biochemical (cell-free) qHTS assay (AID 1645840; active = well fitted curve in the direction sought with a large enough effect in the repeat runs; inconclusive = weak or mixed curves; inactive = no such curve, though single readings can be large; an effect the other way counts as inactive or inconclusive; note: % is set by controls: 0 for no effect and ±100 for the full control effect; nearly all actives have a fitted effect of over 55% in size)
How it was run: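 P450-Glo CYP2D6 system: proluciferin substrate converted by enzyme to luciferin, read by luminescence proportional to activity. Enzyme-substrate mix with compound 10 min at room temperature, then NADPH regeneration 1 h before detection reagent.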

[8] = Primary qHTS for inhibitors of nuclear receptor binding SET domain protein 2 (NSD2) in an isogenic RCH-ACV NSD2 p.E1099K mutant (9B) (AID 1645876); note: potency is the fitted concentration of half-maximal effect; nearly all actives have a fitted effect of over 70% in size
[9] = Primary qHTS for inhibitors of nuclear receptor binding SET domain protein 2 (NSD2) in an RCH-ACV wild type WT cells (2C) (AID 1645877); details: activity change, negative = cell killing: at 44.9 µM (top of the series) unless noted; note: potency is the fitted concentration of half-maximal effect; nearly all actives have a fitted effect of over 70% in size
[10] = Primary fluorescence-based thiol-reactive (MSTI) qHTS assay for identification of artifact compounds. (AID 1845221);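 note: potency is the fitted concentration of half-maximal effect; thiol-reactive compounds lower the probe fluorescence signal; nearly all actives have a fitted effect of over 65% in size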
How it was run: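 Thiol-reactive compounds detected by quenching of 4 uM MSTI fluorescence (525/598 nm) after 1 h room-temperature dark incubation in PBS pH 7.4, 2% DMSO. qHTS titration; percent inhibition Hill-fitted against Acetyl-MSTI/MSTI controls.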

CRL-7250 = normal cell line; experiment: Cytotoxic Profiling of Annotated Libraries Using Quantitative High-Throughput Screening (AID 1296008); details: Five cell lines viability, CellTiter-Glo ATP luminescence, 48-72 h; max response: hits give low values; note: % is set by controls: 0 for no effect and ±100 for the full control effect; nearly all actives have a fitted effect of over 60% in size
How it was run: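 Compounds were pin-transferred onto cells and incubated 48 or 72 hr at 37 degree Celsius, 95% humidity. CellTiter-Glo was added, plates sat 10 min at room temperature, then ATP-coupled luminescence was imaged as the viability read-out.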

CASKI = experiment: Primary qHTS to identify gynecologic anti-cancer compounds using libraries of approved drugs and bioactive compounds (AID 1345084); details: Gynecologic cancer cell panel viability, ATPlite luminescence, 48 h; series mostly up to 57.5 µM; note: nearly all actives have a fitted effect of over 55% in size; note: potency is the fitted concentration of half-maximal effect; for activity change, negative = cytotoxicity: % is set by controls: 0 for no effect and ±100 for the full control effect
How it was run: (§1)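 Five-point cytotoxicity, 48 h drug exposure at 37 C, 5% CO2, on cells seeded 16 h beforehand. ATP content read by ATPlite luminescence.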

JEG-3 = experiment: as above; details: Gynecologic cancer cell panel viability, ATPlite luminescence, 48 h; series mostly up to 57.5 µM
How it was run: as §1

Tov-21-G = experiment: as above; details: Gynecologic cancer cell panel viability, ATPlite luminescence, 48 h; activity change, negative = cytotoxicity: at 57.5 µM (top of the series) unless noted
How it was run: as §1

Tov112D = experiment: as above; details: Gynecologic cancer cell panel viability, ATPlite luminescence, 48 h; series mostly up to 57.5 µM
How it was run: as §1

CAOV3 = experiment: as above; details: Gynecologic cancer cell panel viability, ATPlite luminescence, 48 h; activity change, negative = cytotoxicity: at 57.5 µM (top of the series)
How it was run: as §1

OV90 = experiment: as above; details: Gynecologic cancer cell panel viability, ATPlite luminescence, 48 h; series mostly up to 57.5 µM
How it was run: as §1

SKOV3 = experiment: as above; details: Gynecologic cancer cell panel viability, ATPlite luminescence, 48 h; series mostly up to 57.5 µM
How it was run: as §1
Tags give direction and shape of the fitted curve.

UniProt P10635, sequence (P10635 whole entry, looked up): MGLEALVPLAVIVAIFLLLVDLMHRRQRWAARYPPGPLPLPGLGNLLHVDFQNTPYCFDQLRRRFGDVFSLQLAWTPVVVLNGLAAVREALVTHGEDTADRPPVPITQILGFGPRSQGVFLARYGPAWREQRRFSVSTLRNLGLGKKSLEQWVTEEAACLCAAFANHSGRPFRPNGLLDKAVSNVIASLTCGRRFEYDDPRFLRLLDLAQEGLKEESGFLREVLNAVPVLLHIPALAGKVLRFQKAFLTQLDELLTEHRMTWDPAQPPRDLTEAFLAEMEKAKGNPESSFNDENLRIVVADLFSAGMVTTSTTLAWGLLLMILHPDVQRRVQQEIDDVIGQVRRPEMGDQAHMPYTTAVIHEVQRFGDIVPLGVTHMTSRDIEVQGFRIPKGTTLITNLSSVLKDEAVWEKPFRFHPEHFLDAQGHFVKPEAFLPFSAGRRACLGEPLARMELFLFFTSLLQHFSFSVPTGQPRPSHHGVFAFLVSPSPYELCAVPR
UniProt P09958, sequence (P09958 whole entry, looked up): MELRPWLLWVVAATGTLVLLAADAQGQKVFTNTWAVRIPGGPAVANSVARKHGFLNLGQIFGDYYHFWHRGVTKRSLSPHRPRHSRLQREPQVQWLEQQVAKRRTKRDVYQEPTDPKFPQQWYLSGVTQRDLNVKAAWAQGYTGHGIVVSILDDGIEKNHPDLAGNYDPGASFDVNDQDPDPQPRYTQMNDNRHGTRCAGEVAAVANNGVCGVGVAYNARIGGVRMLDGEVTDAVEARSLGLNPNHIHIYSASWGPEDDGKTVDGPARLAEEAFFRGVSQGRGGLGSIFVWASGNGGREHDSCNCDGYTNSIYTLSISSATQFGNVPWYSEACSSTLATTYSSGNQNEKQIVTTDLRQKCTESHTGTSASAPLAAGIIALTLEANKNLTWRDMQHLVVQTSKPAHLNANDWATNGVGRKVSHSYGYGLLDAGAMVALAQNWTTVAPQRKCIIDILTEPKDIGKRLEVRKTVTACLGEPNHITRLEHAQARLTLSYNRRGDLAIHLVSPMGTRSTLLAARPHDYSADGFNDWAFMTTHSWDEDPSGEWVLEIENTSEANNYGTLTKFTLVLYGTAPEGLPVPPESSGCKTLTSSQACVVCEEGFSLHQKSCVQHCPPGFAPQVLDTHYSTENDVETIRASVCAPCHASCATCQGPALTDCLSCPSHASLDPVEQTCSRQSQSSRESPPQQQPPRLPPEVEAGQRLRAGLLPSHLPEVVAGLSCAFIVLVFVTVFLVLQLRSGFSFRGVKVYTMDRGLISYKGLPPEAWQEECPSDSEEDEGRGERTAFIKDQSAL

CC(C)c1cccc2c(-c3ccccc3)cc(-c3ccc(-c4ccc(C(=O)O)cc4)[nH]3)nc12
active: Potency (Furin (Homo sapiens)) 39.3 µM | Potency [2] 49.4 µM | Potency [3] 7.08 µM | Potency [4] 3.55 µM | Potency [5] 7.08 µM
inconclusive: Potency [1] 20.6 µM [inhibitor, single point] | Potency [6] 37 µM [inhibitor, single point] | Potency [8] 18.3 µM [inhibitor, single point] | Potency [9] 18.3 µM [inhibitor, partial curve] | Potency [10] 4.74 µM [inhibitor, single point] | Potency (CASKI) 39.8 µM [rising, single point] | Potency (Tov-21-G) 31.6 µM [rising, single point] | Potency (Tov112D) 39.8 µM [cytotoxic, single point]
inactive: Potency [7] | max response (CRL-7250) -17.4% | Potency (JEG-3)

C[C@]12CCC[C@](C)(C(=O)O)C1CCC13CC(CO)C(CCC12)C3 (some centres undefined)
inactive: Potency [4] | max response (CRL-7250) -1.66% | Potency (CAOV3) | Potency (OV90)

C=CC(C)(CC/C=C(\C)C(=O)OC)OC1OC(COC(=O)CC(C)(O)CC(=O)O)C(O)C(O)C1O (centres undefined)
inconclusive: Potency [10] 6.53 µM [inhibitor, partial curve, poor fit] | Potency (SKOV3) 0.794 µM [cytotoxic, full curve, poor fit]
inactive: max response (CRL-7250) -11.6% | Potency (CAOV3)
